Assay results from patent US20230348629A1 (BEIJING MABWORKS BIOTECH, published 2023).

How the values were obtained:
[1] = biological target: T1, human VEGF-C-his molecules (Cat #:VEC-H4225, Acrobiosystems) (human, UniProt P49767 103-227, limits assumed); assay: ELISA, plate coated with human VEGF-C-his, antibody titrated (axis labelled MFI)
T1 construct: Bought protein; not shown: his tag
T1 sequence (looked up): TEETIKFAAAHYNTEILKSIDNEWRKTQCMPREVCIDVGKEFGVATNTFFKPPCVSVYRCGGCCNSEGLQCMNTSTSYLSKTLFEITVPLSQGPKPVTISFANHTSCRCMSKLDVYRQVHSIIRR
Procedure: Briefly, an ELISA plate was coated with 100 μl 500 ng/ml human VEGF-A molecules (Cat #:11066-HNAN, Sino Biological, CN), mouse VEGF-A molecules (Cat #:50159-MNAB, Sino Biological, CN), human VEGF-B-his molecules (Cat #:VE6-H5225, Acrobiosystems Co., CN) and human VEGF-C-his molecules (Cat #:VEC-H4225, Acrobiosystems Co., CN) respectively overnight at 4° C. […] The ELISA plate was added with freshly prepared Ultra-TMB (Cat #:555214, BD, USA), and left still for 5 min for color development. The absorbance was read at 450 nm using SpectraMax® i3X microplate reader.

[2] = biological target: T2, human VEGF-A molecules (Cat #:11066-HNAN, Sino Biological) (human, UniProt P15692-4 27-191); assay: SPR (BIAcore 8K), human VEGF-A coupled to the chip, antibody injected
T2 construct: Bought protein; also called human/monkey VEGF; VEGF molecules
T2 sequence (looked up): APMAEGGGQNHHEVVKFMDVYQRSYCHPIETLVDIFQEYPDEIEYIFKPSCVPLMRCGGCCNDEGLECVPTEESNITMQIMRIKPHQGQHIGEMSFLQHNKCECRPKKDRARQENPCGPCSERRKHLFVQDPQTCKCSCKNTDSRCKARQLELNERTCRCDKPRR
Description: Using BIAcore™ 8K instrument (GE Life Sciences, US), the binding affinity of the bispecific molecules of the disclosure to human TIGIT and VEGF was quantitatively measured. Briefly, 100-200 response units (RU) of human TIGIT-his protein (Cat #:10917-H08H, Sino Biological, CN) or human VEGF-A (Cat #:11066-HNAN, Sino Biological, CN) were coupled to CMS biosensor chips (Cat #:BR-1005-30, GE Life Sciences, US). The un-reacted groups were then blocked with 1M ethanolamine Serially diluted antibodies at concentrations ranging from 0.3 μM to 10 μM were injected into the SPR running buffer (HBS-EP buffer, pH7.4, Cat #:BR-1006-69, GE Life Sciences, US) at 30 μL/min. The binding affinity was calculated with the RUs of blank controls subtracted, and the association rate (kₐ) and dissociation rate (kd) were determined using the one-to-one Langmuir binding model (BIA Evaluation Software, GE Life Sciences, US). The equilibrium dissociation constant KD was calculated as the kd/kₐ ratio.

B1: MBS310-7 (bispecific antibody, human IgG1, kappa)
heavy: EVQLVESGGGLVQPGGSLRLSCAASGYTFTNYGMNWVRQAPGKGLEWVGWINTYTGEPTYAADFKRRFTFSLDTSKSTAYLQMNSLRAEDTAVYYCAKYPHYYGSSHWYFDVWGQGTLVTVSSASTKGPSVFPLAPSSKSTSGGTAALGCLVKDYFPEPVTVSWNSGALTSGVHTFPAVLQSSGLYSLSSVVTVPSSSLGTQTYICNVNHKPSNTKVDKKV[sequence of human IgG1 Fc not given]GGGGSGGGGSGGGGSQVQLVQSGAEVKKPGASVKVSCKASGYTFTSYNVHWVRQAPGQGLEWMGTIYPGNLATSYNQKFKGRVTLTADTSTSTVYMELSSLRSEDTAVYYCARSGTMDYWGQGTTVTVSSGGGGSGGGGSGGGGSGGGGSEIVLTQSPGTLSLSPGERATMTCRASSSISSTYLHWYQQKPGASPKLLIYNTQNLASGVPARFSGSGSGTSYTLTISRLEPEDEAVYYCQQFGGYPLITFGAGTKLTAKR
light: DIQMTQSPSSLSASVGDRVTITCSASQDISNYLNWYQQKPGKAPKVLIYFTSSLHSGVPSRFSGSGSGTDFTLTISSLQPEDFATYYCQQYSTVPWTFGQGTKVEIKRTVAAPSVFIFPPSDEQLKSGTASVVCLLNNFYPREAKVQWKVDNALQSGNSQESVTEQDSKDSTYSLSSTLTLSKADYEKHKVYACEVTHQGLSSPVTKSFNRGEC
notes: also called MBS30-7; symmetrical anti-VEGF/TIGIT bispecific antibody
binding result [1]: no binding (tested: about 100 nM (LOG.Con about 2)) | Kd [2]: 0.127 nM
